Over roughly 33,000 sequences, “E-score (-0.5 to 0.5)” has its median near -0.021; the highest 2% begin near 0.32. Some of the results follow.
These sequences were tested against T1, Zap1 (UniProt P47043) (assay: PBM E-score (8-mer binding enrichment) (E-score (-0.5 to 0.5)); higher = stronger / more preferred TF binding; most listed sequences are background and not binding sites). Conditions: protein concentration: 200 nM; construct: GST-full length.
T1 sequence: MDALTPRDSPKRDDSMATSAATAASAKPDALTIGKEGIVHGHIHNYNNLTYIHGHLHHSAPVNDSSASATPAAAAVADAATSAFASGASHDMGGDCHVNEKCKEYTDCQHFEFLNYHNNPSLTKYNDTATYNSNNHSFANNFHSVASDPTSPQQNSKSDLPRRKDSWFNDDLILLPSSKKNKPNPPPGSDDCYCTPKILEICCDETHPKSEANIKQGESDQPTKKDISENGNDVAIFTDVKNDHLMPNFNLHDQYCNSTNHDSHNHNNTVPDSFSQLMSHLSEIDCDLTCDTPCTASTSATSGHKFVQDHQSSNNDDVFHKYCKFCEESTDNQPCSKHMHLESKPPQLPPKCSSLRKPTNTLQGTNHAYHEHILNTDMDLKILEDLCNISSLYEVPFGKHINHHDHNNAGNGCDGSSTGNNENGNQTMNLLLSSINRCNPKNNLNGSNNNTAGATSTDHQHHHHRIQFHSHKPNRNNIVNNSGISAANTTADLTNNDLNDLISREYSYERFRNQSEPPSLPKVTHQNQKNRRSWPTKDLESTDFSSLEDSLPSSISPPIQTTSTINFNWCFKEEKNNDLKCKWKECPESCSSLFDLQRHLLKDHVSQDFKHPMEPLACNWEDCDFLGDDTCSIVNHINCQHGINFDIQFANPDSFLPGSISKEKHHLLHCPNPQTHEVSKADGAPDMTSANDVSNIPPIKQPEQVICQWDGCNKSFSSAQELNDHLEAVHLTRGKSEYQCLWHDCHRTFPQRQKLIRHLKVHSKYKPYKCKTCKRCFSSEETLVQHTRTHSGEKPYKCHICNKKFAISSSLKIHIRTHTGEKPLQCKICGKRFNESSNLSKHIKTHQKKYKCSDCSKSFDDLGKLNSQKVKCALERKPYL
Protocol: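 Universal 'all 10-mer' protein binding microarrays (Agilent AMADID 015681) probed with GST-tagged S. cerevisiae TFs (full-length or DBD) made by in vitro transcription/translation (PURExpress), about 100-200 nM. Bound TF was detected with fluorescent anti-GST. Each ungapped 8-mer (which stands for itself and its reverse complement) is scored by the PBM enrichment score (E-score), a modified Wilcoxon-Mann-Whitney statistic from -0.5 to +0.5, computed with the Universal PBM Analysis Suite. Scale: above 0.35 generally sequence-specific binding.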

Row | Sequence | PBM E-score
1 | AAGACCTG | -0.0707
2 | AAAGCGAG | 0.0285
3 | CCAAACAC | 0.0562
4 | GCGTGGGA | -0.0491
5 | AATACCAG | 0.15
6 | AACCGCTG | 0.176
7 | CGCACATC | -0.183
8 | CTCTCGTC | -0.163
9 | ATATCGTG | -0.0368
10 | AATGGCCG | -0.0971
11 | AAGGAACA | 0.17
12 | GAAGTGCC | -0.159
13 | GGGATTAC | -0.0005
14 | GTCATCCA | 0.0621
15 | ATTCGGCC | -0.132
16 | TATGCATA | -0.009
17 | TGGTTAAA | 0.379
18 | CTCAGAGA | -0.119
19 | CATTTAGA | 0.0369
20 | ACTTTCCA | 0.047
21 | GTGAATAA | 0.153
22 | ATGCTTTG | -0.137
23 | CGTAAAAA | 0.031
24 | AGACACAA | 0.136
25 | AGGACCCT | 0.226

Row | Sequence | PBM E-score
26 | ATAATTAT | 0.19
27 | CCTCTACC | 0.108
28 | ACCTTTCT | 0.372
29 | CTTGTGCC | -0.0484
30 | ATAAATGC | 0.0394
31 | ACAGAGGG | -0.0722
32 | ATTGTATC | -0.147
33 | CCCCAGGC | -0.275
34 | ATCAACCG | 0.0133
35 | CTCACGGA | -0.112
36 | ATTGGGAC | 0.214
37 | ACACTGCC | 0.0346
38 | ACGCGAGT | 0.151
39 | GGTCGACA | 0.0391
40 | CATAGCAG | -0.29
41 | AGGTCTAG | -0.0206
42 | AGATATAG | 0.14
43 | GATACCAC | 0.183
44 | ACGAGCTC | -0.157
45 | TGTCTGAA | -0.0114
46 | ATAGTGTA | -0.0725
47 | GGGATACC | 0.203
48 | CACAAGAA | 0.23
49 | AAGCAAAC | -0.0029
50 | AGGATGGG | -0.247

Row | Sequence | PBM E-score
51 | AGTTTTCA | 0.015
52 | AAGCTTCT | -0.247
53 | CGTTGGAA | -0.0543
54 | AGTAACCG | 0.355
55 | CCTCCCCA | 0.0296
56 | AACATTGC | -0.0846
57 | CGTAGGGA | -0.191
58 | AACTCAGC | -0.115
59 | CAATGAAA | -0.0117
60 | ACCATTCC | 0.00682
61 | ACGGACAG | -0.202
62 | AGCAAGGG | 0.191
63 | GAGCCGGA | -0.248
64 | CTTTGTAA | 0.232
65 | AAAGAACG | 0.0984
66 | AACGTACC | -0.034
67 | ATACAATA | 0.125
68 | ACCCTCGC | 0.267
69 | CATGAGAG | 0.0645
70 | AGGCGTTG | -0.104
71 | ACACCTCC | -0.272
72 | GTGGATCA | -0.124
73 | ACCAATCT | 0.0905
74 | CTGATGAC | 0.00349
75 | GCGGATGA | -0.0325

Row | Sequence | PBM E-score
76 | GGAATTTA | 0.0666
77 | AACCTCCC | 0.155
78 | CGGTGATA | 0.014
79 | CTATCGCC | -0.222
80 | AAGCAACT | -0.00952
81 | CCGTTAGC | -0.12
82 | CGCTAATC | -0.0409
83 | CAGATTCC | -0.00551
84 | AAAAAACG | 0.218
85 | AAATCGTG | 0.14
86 | TACCGCGA | 0.328
87 | GTGAAAGA | 0.0877
88 | AGTAGTTG | 0.112
89 | CTGACCTC | 0.194
90 | AGGCAGCG | -0.291
91 | ATCAGAAG | -0.0955
92 | CACCTCAC | 0.155
93 | CTTGTATC | 0.00927
94 | GCCGGACC | -0.173
95 | GATGTCCA | 0.00103
96 | TGAGTGAA | -0.0791
97 | GTAGGGCA | -0.143
98 | ATCCCTTG | -0.0496
99 | GAGATACC | 0.141
100 | CAAGGAAG | -0.0885

Row | Sequence | PBM E-score
101 | ATCCCACA | -0.135
102 | ACGGGGTC | 0.218
103 | ATTCAGCC | -0.152
104 | CGAAAGAC | -0.221
105 | GGTGTAAC | 0.262
106 | ACGGCGCA | -0.0664
107 | ACCGTTGG | 0.159
108 | CATTAGTC | -0.104
109 | ACATGAGG | 0.00666
110 | CTTTTACA | 0.101
111 | GCAGGCCA | -0.0943
112 | GAATATGA | 0.0388
113 | AGGGTCTA | 0.145
114 | CCCAAACG | 0.053
115 | GAAAGAGC | -0.158
116 | ATGCACGG | -0.128
117 | CCCACGGC | -0.0955
118 | CGCTTCAG | -0.0307
119 | CATCTTAA | -0.0359
120 | GCACCTCA | 0.152
121 | AACCTGAG | 0.181
122 | CTCAACGC | -0.162
123 | CGAGGTAG | 0.0649
124 | AAATGACG | 0.111
125 | ACAACCCA | 0.286

Row | Sequence | PBM E-score
126 | AGTGCATC | -0.265
127 | AAGGGAGG | -0.187
128 | CGTCGACG | -0.165
129 | GTAGTTGA | 0.2
130 | AAGGCGGA | -0.0506
131 | ACACACAG | 0.122
132 | AGTGCACC | -0.136
133 | CATGCGGA | -0.0937
134 | CCAGGATA | 0.164
135 | ACGTTATA | 0.137
136 | CGCACCCA | -0.0129
137 | CAGCACGC | -0.229
138 | ATGATGAG | -0.0756
139 | ACAACGGC | 0.0141
140 | GTCTACTA | 0.178
141 | CAAAATAG | -0.196
142 | AGCGACAG | -0.0664
143 | AGCATGGA | -0.212
144 | CATCAAGA | 0.0759
145 | AACGTAAC | 0.171
146 | AAAAGTCT | -0.111
147 | TGAATACA | 0.0584
148 | ATATATCG | 0.19
149 | AAGTCGTA | -0.156
150 | CAGACCTC | -0.0696

Row | Sequence | PBM E-score
151 | ACTCCCTG | 0.00959
152 | GGGGGCAA | -0.293
153 | AGTCAACA | 0.055
154 | CAGGGCAA | -0.082
155 | GTACAATA | 0.105
156 | TACGGCGA | -0.0194
157 | GGCGGCGA | -0.052
158 | AGAGCATC | -0.253
159 | CCGAGTAC | -0.181
160 | CCTATAAC | 0.171
161 | CACCCGAG | 0.124
162 | ACTTGGCT | -0.141
163 | AGCTATTC | -0.233
164 | CTAACAGA | 0.0933
165 | GGCGCTCA | -0.256
166 | GATCTCCC | -0.288
167 | ACAACAAT | 0.0383
168 | ATGCAGTC | -0.156
169 | AGCTCCTG | -0.231
170 | AATAAAGG | 0.204
171 | TGAGTTAA | 0.054
172 | AGGGCACC | 0.04
